Data published in the supplement of paper PMC12632987.
The full ranking holds about 4,500 sequences; the median of “median log2 fold change of GCK-ALFA target abundance (FLAG IP / Myc IP barcode read proportion)” is about 0.078, and the lowest 2% start at about -0.6. This is one part of the list.

B1: GBRAP_128_3361 (protein)
chain: LDEELLKEAKKLVEAMKTADVETTRKLTEKVIELMKKADAETAEAIAEILKEALPELTAEKLDAIADAIRKARPEADPEKANLLADVEVEALNEAVEKEE
B2: GBRAP_125_3069 (protein)
chain: PSDEELADLATLARALGFSESEVAEAVEIARASSLRQTLVAIALAEDAEELADAIERLTEEEAAELLRRLAAELAAHPDLTPEEVLARALALARELIAAR
B3: GBRAP_11_2686 (protein)
chain: KKEKLKEGAELAKEAAAVVKELLEKGTDDEELLKKLKELLEKLKELTEKYGDPDLKKLAKIAVELFEEALKDKENKEKYMKELLAALEVLAGDYLLLIEE
B4: GBRAP_11_2605 (protein)
chain: KKETLKKAAELAEELAKAVEELLKEGVDNEELRKKIKELLEKLKKLVEEELDESDKKDVEVLEELWKKAEEDPENREEYLEQLRAAALVLSGNFLLEIEE
B5: GBRAP_52_6045 (protein)
chain: MRERMRRLARELVALVKAGDREGARELAKRIAEELDDEELRLLAEELAALAREGDEEEREAVLEAAEILAEELERAGKDPALADEIEARVAAAAYEASLK
B6: GBRAP_125_3060 (protein)
chain: SKEEAIANLARIARALGYSEDDIAELERLARASSIKNTMIAIALAEGDEELADALARLSEEEVIAVLARAAAELAANPDLTPEEVRALLLRLAREALAAA
B7: GBRAP_160_4774 (protein)
chain: SEKKEELIKEIEEAAKEIKEAIDTESPEEALTVVRGETGDIIMEVFELGFDNDELEDKVAEIMDKLVKDMEEAKDKSPEEKKAIVEEYKKEAIETIEKLS
B8: GBRAP_160_3992 (protein)
chain: SEKIEELKEEFKEIFEETLALARGESPEERLAVVRVMAGEVILLAEESGVLSDEAVEKIAEVMDELVATVEANPDMSDEELAALLEKALEKIFKIIDEES
B9: GBRAP_74_6540 (protein)
chain: SEEVLEEIKKLIEEGKFLEAAELVIKVIKEEDTETALEALRIFLKGVIENKDKLTLEEAEKIGDVIAEAFTLIPDEEFSDELYDLINKTLEIIIEIEKKS
B10: GBRAP_11_2887 (protein)
chain: KKEKLKELAEIAEEIAEKIEELLEEGVDNEELLKEIEELLKKLAELTKKYADKGSQKLTEIAAELFKEALENPEKREEYLKELLAAVRVLEGDYLLEAEE
B11: GBRAP_64_6488 (protein)
chain: EEEIEKLLKEALELVEKLLELVKDLSEELQKKVKKVLELLKKAEEASLEERLDLVVEAAKLMNEILKDPELTEEQKEQAAEALDALSELAQELFEAEEEK
B12: GBRAP_52_6099 (protein)
chain: SEERLREYAERLVEAAVAGDVERATELLLEAVASLSDEEVLEMLRLAAELMSKLPPEELERATDVMLEALDRVAEATGKEELMDLAEAEVAAIAYEALQK
B13: GBRAP_52_6199 (protein)
chain: MEERMRELAERVFEAVKAGRLEEARELLRELAEERDEEAIRLFTEELARLALTVPEEDWDAVFEAAELFEEVAEEEGVPEELADEAIARVAAALYKREQA
B14: GBRAP_160_4352 (protein)
chain: SETVERLIEEIRRVAEEVKEEIDDLSVEEVRIIAAGLFGEVFMEAAEDPRISDELEDVVIDGRDRVLEFLKANENASVEEIKEGIERIVEETIRRIKEIA
B15: GBRAP_95_7040 (protein)
chain: DDLVLAVESLAEVVEGLVELGDEEAAKKAAKRLLEAIKEAKPDKVKIELSKETAKLIIEVAKKTLSKEEAIEILEKLAEFATNEEVKELFLKAAEELKKE
B16: GBRAP_137_3635 (protein)
chain: AKVTIETETIGDVVEITVTFDDPEKAEEVAEMLLDIAHEKGALAVSIEIKENGVLEAVIWVPKEKAEELIKAIVKALTEKFGADVTIINKDTGEVKEIKA
B17: GBRAP_160_4487 (protein)
chain: MEKVEEAKREVEELIELMVESIKESPPSQRLPIARAYAGDIAQTVYEHGLVDDEQFEELLELVEELAEEIVRASEEGPEAMEEAAERLREEVARFIEEVS
B18: GBRAP_184_5113 (protein)
chain: KTLEFEIKVENVEEAKKKLEEAVKKAVEEKANLLVIVEVKNATVELAKAIVEKLAEAKKAGIKNVTALLESDNITEEVIDAAIEKAKELGIDNLVIATKE
B19: GBRAP_80_6823 (protein)
chain: AEERLKEVLEELKEVDPEIAEIVKELIEIARELGVSLEDLARAAEAVLELAKLDKEKAREIVKEALEELKKAKERGDLAEATAIVYDLESDALLAAEELE
B20: GBRAP_166_4918 (protein)
chain: SMEEIVEEAEERLREVIREERADPRMTPEQITVAMADELAEILDEVEDEETKMAIVERGLKIAKEEGLDPERLAKLTAGLYGFSDEEEEEIEKIVKEILK
B21: GBRAP_52_6328 (protein)
chain: SEEKVRELAEKLVAAIEAGDEEKAKELAEKAVKELSSEEILELARIVAEKVATKDDATKERAAEVFDYLAELVIEEHGDEKTAAEILGIYARTLYAAEQA
B22: GBRAP_53_6418 (protein)
chain: MEEKKKKLKEEILKLAKEAGKADEEEQLKLTKEIIKLLKEAKEAGMSDEELTKLAKEVAKLLKEAGASDSALVELAKGLAELGLEEATAEVVELIVEDLE
B23: GBRAP_14_3786 (protein)
chain: MEKKLELLEKAKEEIKEEAAKIAPAKADELNAAIDEIFKETKEEIKKTGDAVKAVEEARERLLARFREILADEPEIVRAALLAAVDNILTELELELEELE
B24: GBRAP_14_3868 (protein)
chain: KEKALEIVEEAIDEAAAELKKAFPEEAARIDAVAAEIREYARELLESEEDIEEAMEKIREHALALTAEAFADLPPEDQAAALTIVDDEFLEAELEIEEEL
B25: GBRAP_35_5530 (protein)
chain: ATDEEITDWLVATIDDLVLALPDMPVDTALAAGTSIARAAREVAKEVKDNKEALEKILEAMRRLAEALAARAEEDPRMQPALDLARAVVEEIEKLLKEAE
B26: GBRAP_160_4454 (protein)
chain: SERLEKLLKEIDEIREEAIKLIEGETHEQRVVIVEGLFGEFVMTLVSDDSISDELEDEVAAEVDELIDTLRANPDLTEEEIKELIKETAEKIKEILKEKL
B27: GBRAP_125_3135 (protein)
chain: RREALLALAEALARLFGFSEEEIAEIREIAEAHDPAQTIVAIYLAAGFEELAELADEVLDKLTEEEIAELRDLALASRDLPLEEAEAALLAKLKELKAKL
B28: GBRAP_11_2852 (protein)
chain: KKEKLEKILKAAQAAIATVDALIAAGTTDAALQAQTKKKLEELKELVKEYGDENLIELVEEAQAAFEEAAADPANRAQYYNEALAFLRALEGEVLLKLEE
B29: GBRAP_184_5063 (protein)
chain: KTYEAEIEVTNLEEAKAKMAALAEEIKDFKGNLIVQLFLPEFDREIVETVLDQLAAIKAAGYAKKITLGIDADTTEEDVDFLVSKADALGINVVVALREE

biological target: GABARAP, O95166; test: median log2 fold change of GCK-ALFA target abundance (FLAG IP / Myc IP barcode read proportion) (log2 ratio); each designed protein is fused to an ALFA-tag nanobody in HEK293 cells to bring the named protein to FLAG-tagged glucokinase (GCK); Myc marks an untargeted standard; higher = target protein stabilised (more abundant); details: target protein: 3xFLAG-MCP-GCK-ALFA reporter; HEK293 landing pad (RPLP)
Sequence (O95166 whole entry, the tested form may be a part): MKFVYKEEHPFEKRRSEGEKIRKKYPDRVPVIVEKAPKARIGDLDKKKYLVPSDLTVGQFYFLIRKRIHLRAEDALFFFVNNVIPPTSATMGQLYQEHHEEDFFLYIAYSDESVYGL
How it was run: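 Sequencing of reverse-transcribed, amplified circular RNA barcodes from anti-FLAG and anti-Myc immunoprecipitates provided the readout for an ALFA-nanobody-fused binder library recombined into HEK293 landing-pad cells. Those cells were induced with 2 μg mL^−1 doxycycline, transfected with a plasmid expressing a FLAG-tagged target and a Myc-tagged standard, and lysed after 48 h. Target abundance is the per-binder median log2 ratio of FLAG to Myc barcode read proportions. Only barcodes at a proportion of ≥10^−7 in both replicates and binders with ≥3 barcodes per replicate were kept, with a 10^−6 pseudocount added before the two replicates were pooled.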

Binder	median log2 fold change
B1	0.0187
B2	-0.12
B3	0.351
B4	0.225
B5	-0.0201
B6	-0.055
B7	-0.0262
B8	-0.427
B9	-0.448
B10	0.149
B11	0.192
B12	0.0627
B13	-0.0996
B14	0.126
B15	0.24
B16	-0.022
B17	-0.0375
B18	0.27
B19	0.254
B20	0.0961
B21	0.193
B22	0.136
B23	0.412
B24	-0.151
B25	0.202
B26	0.115
B27	-0.346
B28	0.223
B29	0.122
